Test results reported in the supplement of paper PMC12217912.
This is one part of the list. The full chains were built here from the parent and the listed change. Values near 0.05 are background.

B1: TEV protease; numbered along this chain (parent)
chain: MGESLFKGPRDYNPISSSICHLTNESDGHTTSLYGIGFGPFIITNKHLFRRNNGTLVVQSLHGVFKVKDTTTLQQHLVDGRDMIIIRMPKDFPPFPQKLKFREPQREERICLVTTNFQTKSMSSMVSDTSCTFPSGDGIFWKHWIQTKDGQCGSPLVSTRDGFIVGIHSASNFTNTNNYFTSVPKNFMELLTNQEAQQWVSGWRLNADSVLWGGHKVFMVKPEEPFQPVKEATQL

Variants of: B1
Experiment: raw area under fraction-flipped curve 0-4 h after induction (AUC4h, not background-subtracted), DNA-recorder readout of cleavage of the substrate (dimensionless); higher = more cleavage of the substrate by the protease variant
Settings: temperature: 34 °C; time window: 0-4 h after rhamnose induction
Procedure: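 In vivo DNA recorder in E. coli TOP10(DE3) ΔrhaA at 34 °C. Each TEVp single-site mutant (parent TEVp 0) is paired with a single-site variant of the 7-mer TEVs (canonical ENLYFQ|S). The substrate sits between flexible linkers in a Bxb1-sfGFP-TEVs-SsrA fusion, so cleavage stabilises Bxb1 and speeds flipping of a recombination array, read by NGS. The value is the raw area under the fraction-flipped curve over 0-4 h after rhamnose induction (AUC4h), with ≥20 reads per time point. It is not background-subtracted; inactive controls average about 0.047.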
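Also: Bxb1 expression induced with 0.2% (w/v) L-rhamnose at OD600 near 0.5, cultures sampled hourly, flipped fraction per protease–substrate barcode pair counted by paired-end Illumina sequencing.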

Variant | area with substrate EALYFQS | area with substrate EGLYFQS | area with substrate EHLYFQS | area with substrate EKLYFQS | area with substrate EPLYFQS | area with substrate EQLYFQS | area with substrate ERLYFQS | area with substrate ESLYFQS | area with substrate EVLYFQS | area with substrate EYLYFQS | area with substrate ECLYFQS | area with substrate EDLYFQS | area with substrate EELYFQS | area with substrate EFLYFQS | area with substrate EILYFQS | area with substrate ELLYFQS | area with substrate EMLYFQS | area with substrate ETLYFQS | area with substrate EWLYFQS
L77V | 0.083 | 0.0801 | 0.0663 | 0.042 | 0.104 | 0.0938 | 0.0831 | 0.0807 | 0.083 | 0.0985 |  |  |  |  |  |  |  |  | 
L77D | 0.0748 | 0.0706 |  | 0.0706 | 0.0492 | 0.0666 | 0.0684 | 0.0771 | 0.025 |  | 0.0703 | 0.0841 | 0.0642 | 0.0652 | 0.0655 | 0.0634 | 0.0693 | 0.0418 | 0.0727
G28N | 0.0979 |  |  | 0.0939 |  | 0.0947 | 0.11 | 0.0884 | 0.0755 |  |  | 0.108 |  | 0.12 | 0.0901 | 0.116 |  |  | 
G28P | 0.0708 |  | 0.12 | 0.0734 | 0.0863 | 0.0875 | 0.0755 | 0.0683 |  | 0.0826 | 0.053 |  | 0.0696 | 0.0776 | 0.0678 |  |  | 0.0769 | 
G28R | 0.0897 | 0.0726 | 0.0997 | 0.101 |  | 0.0912 | 0.0919 | 0.088 | 0.0871 |  | 0.0836 | 0.14 | 0.117 | 0.0931 | 0.0778 | 0.108 |  | 0.0749 | 
G28E | 0.103 | 0.0722 | 0.0974 |  |  | 0.112 | 0.104 | 0.107 | 0.0945 | 0.0842 | 0.0925 | 0.122 | 0.0836 |  | 0.0865 |  |  | 0.129 | 0.101
G28W | 0.145 | 0.0628 | 0.0741 | 0.0842 | 0.101 | 0.0843 | 0.0951 | 0.0889 | 0.0691 | 0.0534 | 0.0797 | 0.0896 |  | 0.0724 | 0.0696 | 0.0695 |  |  | 0.0788
D69R | 0.0869 | 0.0748 | 0.0763 | 0.0892 | 0.112 | 0.0889 | 0.0701 | 0.0807 | 0.147 |  | 0.0924 | 0.115 | 0.0817 |  | 0.0814 | 0.0704 | 0.0937 |  | 0.0899
F65T | 0.125 | 0.0865 |  | 0.1 | 0.116 | 0.111 |  | 0.0928 | 0.0697 | 0.121 | 0.102 | 0.107 | 0.097 |  | 0.0868 | 0.0976 | 0.108 |  | 
H62M | 0.0665 |  |  | 0.0873 |  | 0.12 | 0.0955 | 0.118 |  |  | 0.0767 |  | 0.217 |  | 0.113 |  |  | 0.11 | 
N52R | 0.0684 |  | 0.0692 | 0.0743 | 0.0621 | 0.0762 | 0.0719 | 0.0889 |  |  | 0.0699 |  | 0.0741 |  | 0.0685 |  | 0.0684 | 0.084 | 
N53R | 0.0772 | 0.0955 | 0.0732 | 0.0894 | 0.0879 | 0.101 | 0.071 | 0.103 | 0.0999 |  | 0.0704 |  | 0.0857 |  | 0.0711 | 0.0767 |  | 0.0946 | 0.0851
T44Y | 0.0439 | 0.0198 | 0.0503 | 0.0467 | 0.0463 | 0.0616 | 0.0277 | 0.0435 |  | 0.0341 | 0.0446 |  | 0.0374 |  | 0.0393 | 0.0453 | 0.0403 |  | 
G54T | 0.102 | 0.063 | 0.0718 | 0.0873 | 0.0857 | 0.0783 |  | 0.0775 | 0.0793 |  | 0.0745 |  | 0.0804 |  | 0.0682 | 0.0852 |  | 0.0735 | 0.0875
G54N | 0.0643 | 0.0621 |  | 0.067 | 0.0693 | 0.064 | 0.06 | 0.0734 |  | 0.068 | 0.057 | 0.0786 | 0.0718 | 0.0743 | 0.0485 |  | 0.0649 | 0.0694 | 0.0089
G37E | 0.0546 | 0.0291 |  | 0.0507 | 0.0533 | 0.0583 | 0.0442 | 0.0548 | 0.0428 | 0.065 | 0.0522 |  | 0.0643 | 0.0233 | 0.0438 | 0.055 | 0.0529 |  | 0.0556
T30G | 0.12 | 0.0878 | 0.1 | 0.0878 | 0.0889 | 0.113 | 0.0802 | 0.0994 | 0.111 | 0.0749 | 0.115 | 0.125 |  | 0.116 | 0.0726 | 0.0926 | 0.0963 |  | 
K66I | 0.124 |  |  |  | 0.132 |  | 0.096 | 0.0964 |  |  | 0.0982 |  |  | 0.0967 | 0.097 | 0.105 |  |  | 0.0471
K46L | 0.0925 | 0.0669 | 0.0957 | 0.0778 | 0.12 | 0.11 | 0.0497 | 0.0737 | 0.0557 |  | 0.0826 |  | 0.102 | 0.0954 | 0.085 | 0.0787 | 0.0708 | 0.0852 | 
K46Y | 0.0619 |  | 0.0706 | 0.0916 | 0.0617 | 0.0604 |  | 0.0625 | 0.0589 |  |  |  |  |  | 0.0557 | 0.0326 | 0.042 | 0.0469 | 0.054
K46Q | 0.095 | 0.0591 |  | 0.0904 |  |  | 0.0084 | 0.0797 | 0.0951 | 0.0452 | 0.102 | 0.153 |  |  | 0.0973 | 0.0455 | 0.109 | 0.0674 | 0.104
G80R | 0.0898 |  |  |  |  | 0.0644 | 0.131 | 0.0913 |  | 0.102 | 0.108 | 0.0398 | 0.0622 |  | 0.11 | 0.0847 | 0.11 |  | 0.112
K68E | 0.12 |  |  | 0.112 | 0.136 | 0.14 | 0.0997 |  |  |  | 0.115 |  |  | 0.117 | 0.116 | 0.0959 | 0.141 | 0.119 | 0.09
K68L | 0.0881 | 0.0873 | 0.111 | 0.0943 | 0.079 | 0.108 | 0.0684 | 0.103 | 0.0979 | 0.109 | 0.0692 | 0.132 |  |  | 0.0921 | 0.101 | 0.106 | 0.104 | 0.0862
K68Q | 0.137 | 0.109 |  | 0.0945 |  | 0.105 |  | 0.0994 | 0.123 |  | 0.108 |  | 0.11 |  | 0.0964 | 0.0919 | 0.125 |  | 0.0991
